From patent US11457629B2, “Heteroarylphenylaminoquinolines and analogues” (Bayer Aktiengesellschaft, priority 2017, dated 2022) come the findings set out here.

The procedure of the series:
In the following, measurement of Log P values was performed according to EEC directive 79/831 Annex V.A8 by HPLC (High Performance Liquid Chromatography) on reversed phase columns with the following methods: • ^[a]
If more than one Log P value is available within the same method, all the values are given and separated by “+”.
Calibration was done with straight-chain alkan2-ones (with 3 to 16 carbon atoms) with known Log P values (measurement of Log P values using retention times with linear interpolation between successive alkanones). Lambda-max-values were determined using UV-spectra from 200 nm to 400 nm and the peak values of the chromatographic signals.
In the case of `CCn1nccc1-c1cc(F)ccc1Nc1cnc2ccccc2c1C` [Example I-170], the logP is 1.98 ^[a]. For `Cc1nc2ccccc2nc1Nc1ccccc1-c1ccnn1CCc1ccccc1` [Example I-171], the logP was 4.25 ^[a]. For the compound `Cc1nc2c(F)c(F)ccc2nc1Nc1ccccc1-c1ccnn1CCc1ccccc1` [Example I-172], the logP is 4.56 ^[a]. The same measure for `Cc1nc2c(F)c(F)ccc2nc1Nc1ccc(F)cc1-c1ccnn1CCc1ccccc1` [Example I-173]: 4.49 ^[a]; for `Cn1nccc1-c1ccccc1Nc1cnc2c(F)c(F)ccc2n1` [Example I-174]: 2.84 ^[a]; for `CCn1nccc1-c1ccccc1Nc1cnc2c(F)c(F)ccc2n1` [Example I-175]: 3.21 ^[a].

`Cc1ccc(F)c(-c2ccnn2C)c1Nc1nc2ccccc2nc1C` [Example I-176]: the logP is 2.43 ^[a]. The same measure for `Cc1ccc(Nc2nc3ccccc3nc2C)c(-c2c(Br)cnn2C)c1F` [Example I-177]: 3.50 ^[a]. Consider `Cc1ccc(Nc2nc3ccccc3nc2C)c(-c2ccnn2C)c1F` [Example I-178], for which the logP was 3.09 ^[a]. With `Fc1ccc(Cn2nccc2-c2ccccc2Cc2cnc3ccccc3c2)cc1` [Example I-179] the figure was 2.86 ^[a]; with `Cc1nc2c(F)c(F)ccc2nc1Nc1ccccc1-c1ccnn1C` [Example I-180], 3.00 ^[a]. With `Cc1nc2c(F)c(F)ccc2nc1Nc1ccc(F)cc1-c1ccnn1C` [Example I-181] the figure was 3.00 ^[a]; with `Fc1ccc(Nc2cnc3c(F)cccc3c2)c(-c2ccnn2CCc2ccccc2)c1` [Example I-182], 3.76 ^[a]. The same measure for `Fc1ccc(Nc2cnc3c(F)c(F)ccc3c2)c(-c2ccnn2CCc2ccccc2)c1` [Example I-183]: 3.97 ^[a]. Consider `Fc1cccc2cc(Nc3ccccc3-c3ccnn3CCc3ccccc3)cnc12` [Example I-184], for which the logP was 3.81 ^[a]. With `Cc1nc2ccccc2nc1Nc1ccc(F)cc1-c1ccnn1C` [Example I-185] the figure was 2.56 ^[a]; with `Cc1c(Nc2ccc(F)cc2-c2ccnn2CCc2ccccc2)cnc2ccccc12` [Example I-186], 2.76 ^[a]; with `Cc1c(Nc2ccccc2-c2ccnn2CCc2ccccc2)cnc2ccccc12` [Example I-187], 2.85 ^[a].

Consider `Fc1ccc(Nc2cnc3c(F)c(F)ccc3n2)c(-c2ccnn2CCc2ccccc2)c1` [Example I-188], for which the logP was 4.18 ^[a]. With `Cn1nccc1-c1cc(F)ccc1Nc1cnc2c(F)c(F)ccc2n1` [Example I-189] the figure was 2.82 ^[a]; with `CCn1nccc1-c1cc(F)ccc1Nc1nc2ccc(F)c(F)c2nc1C` [Example I-190], 3.40 ^[a].

In the case of `CCn1nccc1-c1ccccc1Nc1nc2ccc(F)c(F)c2nc1C` [Example I-191], the logP was 3.42 ^[a].

Regarding `Cc1cnn(C)c1-c1c(F)cccc1Nc1nc2ccccc2nc1C` [Example I-192], the logP is 3.02 ^[a].

For `Cc1ccc(Nc2nc3ccccc3nc2C)c(-c2c(C)cnn2C)c1F` [Example I-193], the logP was 3.33 ^[a].

With `Cc1cnn(C)c1-c1c(F)cccc1Nc1c(C)nc2c(F)c(F)ccc2c1C` [Example I-194], the logP was 2.86 ^[a]. The same measure for `Cc1c(Nc2cccc(F)c2-c2ccnn2C)cnc2c(F)c(F)ccc12` [Example I-195]: 3.11 ^[a]. With `Cc1cc(C)c(Nc2cnc3ccccc3c2C)c(-c2ccnn2C)c1F` [Example I-196], the logP was 1.75 ^[a]. Regarding `Cc1ccc(Nc2cnc3ccccc3c2C)c(-c2ccnn2C)c1F` [Example I-197], the logP was 2.15 ^[a]. For the compound `Cc1ccc(Nc2cnc3ccccc3c2C)c(-c2c(C)cnn2C)c1F` [Example I-198], the logP is 2.40 ^[a]. The same measure for `O=C(O)c1ncsc1-c1ccccc1Cc1cnc2ccccc2c1` [Example I-199]: 1.37 ^[a]; for `Cn1nccc1-c1ccccc1Cc1cnc2ccccc2c1C(F)F` [Example I-200]: 2.92 ^[a]. With `Cn1nccc1-c1ccccc1Cc1cc2ccccc2nc1C(F)F` [Example I-201] the figure was 3.33 ^[a]; with `Fc1ccc(Cn2ccc(-c3ccccc3Cc3cnc4ccccc4c3)n2)cc1` [Example I-202], 2.86 ^[a].

Take `CC(C)c1ccn(-c2ccccc2Cc2cnc3ccccc3c2)n1` [Example I-203]: the logP was 2.43 ^[a]. With `CC(C)(C)n1nccc1-c1ccccc1Cc1cnc2ccccc2c1` [Example I-204] the figure was 2.77 ^[a]; with `CC(C)(C)n1ccc(-c2ccccc2Cc2cnc3ccccc3c2)n1` [Example I-205], 2.82 ^[a]. The same measure for `Cc1ccc(Nc2cnc3c(F)cccc3c2)c(-c2ccnn2C)c1F` [Example I-206]: 2.99 ^[a]; for `Cc1c(Nc2cccc(F)c2-c2ccnn2C)cnc2c(F)cccc12` [Example I-207]: 2.80 ^[a]; for `Cc1cnn(C)c1-c1c(F)cccc1Nc1cnc2c(F)cccc2c1C` [Example I-208]: 3.06 ^[a]. As to `Cc1ccc(Nc2cnc3c(F)cccc3c2C)c(-c2ccnn2C)c1F` [Example I-209], the logP was 3.17 ^[a]. Turning to `Cc1ccc(Nc2cnc3ccnn3c2)c(-c2ccnn2C)c1` [Example I-210], the logP is 2.15 ^[a].

Consider `Cn1nccc1-c1cc(Cl)ccc1Nc1cnc2ccnn2c1` [Example I-211], for which the logP was 2.34 ^[a]. Turning to `Cc1ccc(Nc2cnc3ccccc3c2Cl)c(-c2ccnn2C)c1` [Example I-212], the logP is 3.24 ^[a]. With `Cc1ccc(Nc2nc3ccc(F)c(F)c3nc2C)c(-c2ccnn2C)c1` [Example I-213] the figure was 3.35 ^[a]; with `Cc1nc2c(F)c(F)ccc2nc1Nc1ccc(Cl)cc1-c1ccnn1C` [Example I-214], 3.69 ^[a]; with `Cc1ccc(Nc2cnc3c(C)cccc3c2)c(-c2ccnn2C)c1` [Example I-215], 2.62 ^[a]. The same measure for `Cc1ccc(Nc2cnc3ccccc3c2C)c(-c2ccnn2C)c1` [Example I-216]: 1.86 ^[a]. The same measure for `Cc1c(Nc2ccc(Cl)cc2-c2ccnn2C)cnc2ccccc12` [Example I-217]: 2.30 ^[a]; for `Cc1ccc(Nc2cnc3c(F)c(F)ccc3n2)c(-c2ccnn2C)c1` [Example I-218]: 3.23 ^[a]. For the compound `Cn1nccc1-c1cc(Cl)ccc1Nc1cnc2ccccc2c1Cl` [Example I-219], the logP is 3.51 ^[a]. The same measure for `Cn1nccc1-c1cc(Cl)ccc1Nc1cnc2c(F)c(F)ccc2n1` [Example I-220]: 3.58 ^[a].

Turning to `Cc1ccc(Nc2cnc3c(C(F)(F)F)cccc3c2)c(-c2ccnn2C)c1` [Example I-221], the logP was 3.87 ^[a]. As to `Cn1nccc1-c1cc(Cl)ccc1Nc1cnc2c(C(F)(F)F)cccc2c1` [Example I-222], the logP is 4.03 ^[a]. The same measure for `Cc1ccc(Nc2nc3ccccc3nc2C)c(-c2ccnn2C)c1` [Example I-223]: 2.92 ^[a]; for `Cc1nc2ccccc2nc1Nc1ccc(Cl)cc1-c1ccnn1C` [Example I-224]: 3.31 ^[a]. With `Cc1cccc2cc(Nc3ccc(Cl)cc3-c3ccnn3C)cnc12` [Example I-225] the figure was 3.13 ^[a]; with `Cn1nccc1-c1cc(Cl)ccc1Nc1cnc2c(F)cccc2c1` [Example I-226], 3.13 ^[a]; with `Cc1ccc(Nc2cnc3c(F)c(F)ccc3c2)c(-c2ccnn2C)c1` [Example I-227], 3.21 ^[a]. Consider `Cn1nccc1-c1cc(Cl)ccc1Nc1cnc2c(F)c(F)ccc2c1` [Example I-228], for which the logP was 3.37 ^[a].

Consider `Cc1ccc(Nc2cc3ccc(F)c(F)c3nc2C)c(-c2ccnn2C)c1` [Example I-229], for which the logP was 3.33 ^[a]. Take `Cc1nc2c(F)c(F)ccc2cc1Nc1ccc(Cl)cc1-c1ccnn1C` [Example I-230]: the logP is 3.51 ^[a]. As for `Cc1ccc(Nc2cnc3c(F)cccc3c2)c(-c2ccnn2C)c1` [Example I-231], the logP is 2.92 ^[a]. With `Cc1nc2c(F)c(F)ccc2nc1Nc1ccc(F)c(F)c1-c1ccnn1C` [Example I-232] the figure was 3.46 ^[a]; with `Cc1nc2c(F)c(F)ccc2cc1Nc1ccc(OC(F)(F)F)cc1-c1ccnn1C` [Example I-233], 3.61 ^[a]; with `Cc1nc2c(F)c(F)ccc2cc1Nc1ccc(F)c(F)c1-c1ccnn1C` [Example I-234], 3.27 ^[a]. With `Cc1nc2c(F)c(F)ccc2nc1Nc1ccc(OC(F)(F)F)cc1-c1ccnn1C` [Example I-235] the figure was 3.96 ^[a]; with `Cn1nccc1-c1c(Nc2cnc3c(F)cccc3c2)ccc(F)c1F` [Example I-236], 2.74 ^[a]; with `Cn1nccc1-c1c(Nc2cnc3ccccc3c2Cl)ccc(F)c1F` [Example I-237], 3.05 ^[a]. With `Cn1nccc1-c1c(Nc2cnc3c(F)c(F)ccc3c2)ccc(F)c1F` [Example I-238] the figure was 3.01 ^[a]; with `Cn1nccc1-c1c(Nc2cnc3ccnn3c2)ccc(F)c1F` [Example I-239], 2.11 ^[a]; with `Cc1cccc2cc(Nc3ccc(F)c(F)c3-c3ccnn3C)cnc12` [Example I-240], 2.87 ^[a]. With `Cn1nccc1-c1c(Nc2cnc3c(C(F)(F)F)cccc3c2)ccc(F)c1F` [Example I-241], the logP was 3.54 ^[a]. The same measure for `CCn1nccc1-c1c(Nc2cnc3c(F)cccc3c2)ccc(F)c1F` [Example I-242]: 2.98 ^[a]; for `CCn1nccc1-c1c(Nc2cc3ccc(F)c(F)c3nc2C)ccc(F)c1F` [Example I-243]: 3.39 ^[a].

`Cn1cncc1-c1cc(F)ccc1Nc1cnc2ccccc2c1` [Example I-244]: the logP was 1.11 ^[a].
